Biological target: T1, extracellular domain of recombinant human FcγRIIIa, His-tagged (human, UniProt P08637 fragment)
T1 construct: extracellular domain; also called FcyRIIIa; CD16; not shown: His tag
Experiment: AlphaScreen bead competition assay, His-tagged FcγRIIIa

T1 sequence (P08637 17-208): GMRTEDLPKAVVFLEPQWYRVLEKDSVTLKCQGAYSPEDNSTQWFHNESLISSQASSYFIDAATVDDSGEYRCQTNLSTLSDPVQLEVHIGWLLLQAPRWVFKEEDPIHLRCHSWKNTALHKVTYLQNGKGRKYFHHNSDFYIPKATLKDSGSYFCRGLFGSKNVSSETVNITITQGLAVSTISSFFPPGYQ

fold enhanced binding against PM-PDL-GEX H9D8: ~5 fold
B1: PM-PDL-GEX Fuc- (fucose-reduced bispecific anti-PD-L1/TA-MUC1 hIgG1) (bispecific antibody)
heavy: EVQLVESGGGLVQPGGSMRLSCVASGFPFSNYWMNWVRQAPGKGLEWVGEIRLKSNNYTTHYAESVKGRFTISRDDSKNSLYLQMNSLKTEDTAVYYCTRHYYFDYWGQGTLVTVSS[letters of human IgG1 constant region omitted]
light: not shown
modifications: N-glycans at N297 (EU), 1% core fucosylated
notes: Fucose-reduced glycoform (1%); also called PankoMab-antiPDL1-GEX Fuc-; non-mutated PM-PDL-GEX Fuc-

Source: US20200148785A1 (GLYCOTOPE, published 2020)
